Results from the supplement of paper PMC4604168 (melanoma cell lines).
The other results are listed elsewhere or left out. Single values are uncertain, as repeats are few or missing.

What was measured:
Test in all cases: cell count relative to DMSO control; melanoma cells; higher = more viable cells
Details in all cases: library dose: low library concentration; 72 h
WM115 = test system: WM115
WM1716 = test system: WM1716
WM1745 = test system: WM1745
WM3526 = test system: WM3526
WM3619 = test system: WM3619
WM451Lu = test system: WM451Lu
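Further: cell number obtained by counting DAPI-stained nuclei in high-throughput microscope images with image analysis software, screen run in 1,536-well plates.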

Row | SMILES | cell count (WM115) | cell count (WM1716) | cell count (WM1745) | cell count (WM3526) | cell count (WM3619) | cell count (WM451Lu)
1 | O=C(/C=C/c1cccnc1)NCCCCC1CCN(C(=O)c2ccccc2)CC1 + Oc1nc(-c2ccc(C(F)(F)F)cc2)nc2c1CSCC2 [XAV939] (first compound 0.01 µM, partner dose 2 µM) | 81.4% | 67.4% | 87.2% | 89.8% | 111% | 105%
2 | CC1(C)CCC(c2ccc(Cl)cc2)=C(CN2CCN(c3ccc(C(=O)NS(=O)(=O)c4ccc(N[C@H](CCN5CCOCC5)CSc5ccccc5)c(S(=O)(=O)C(F)(F)F)c4)cc3)CC2)C1 + C[C@]1(c2nc3c(C(N)=O)cccc3[nH]2)CCCN1 [Veliparib] (first compound 0.4 µM, partner dose 1.4 µM) | 74.8% | 78.1% | 7.19% | 100% | 64.5% | 79.5%
3 | O=C(/C=C/c1cccnc1)NCCCCC1CCN(C(=O)c2ccccc2)CC1 + Cn1c(Nc2ccc(C(F)(F)F)cc2)nc2cc(Oc3ccnc(-c4ncc(C(F)(F)F)[nH]4)c3)ccc21 [CHIR265] (first compound 0.01 µM, partner dose 0.08 µM) | 62.1% | 89.4% | 69.1% | 67.1% | 70.8% | 100%
4 | O=C(/C=C/c1cccnc1)NCCCCC1CCN(C(=O)c2ccccc2)CC1 + CN1CCN(c2ccc3nc(-c4c(N)c5c(F)cccc5[nH]c4=O)[nH]c3c2)CC1 [Dovitinib] (first compound 0.01 µM, partner dose 0.1 µM) | 96.4% | 87.9% | 89.3% | 106% | 83.7% | 109%
5 | Cc1ccc(Nc2nccc(N(C)c3ccc4c(C)n(C)nc4c3)n2)cc1S(N)(=O)=O [Pazopanib] + O=C(CCCCCCC(=O)Nc1ccccc1)NO [vorinostat] (first compound 0.4 µM, partner dose 0.08 µM) | 85.4% | 90.4% | 88.8% | 91.7% | 103% | 81.4%
6 | O=C(/C=C/c1cccnc1)NCCCCC1CCN(C(=O)c2ccccc2)CC1 + CC(C)CCN1c2nc(Nc3cc(F)c(O)c(F)c3)ncc2N(C)C(=O)C1C [BID1870] (first compound 0.01 µM, partner dose 0.2 µM) | 89.5% | 108% | 106% | 110% | 98.6% | 116%
7 | Cc1ccc(Nc2nccc(N(C)c3ccc4c(C)n(C)nc4c3)n2)cc1S(N)(=O)=O [Pazopanib] + CC(C)CCN1c2nc(Nc3cc(F)c(O)c(F)c3)ncc2N(C)C(=O)C1C [BID1870] (first compound 0.4 µM, partner dose 0.2 µM) | 91.9% | 88.1% | 92.4% | 95.6% | 85.9% | 93.3%
8 | CC1(C)CCC(c2ccc(Cl)cc2)=C(CN2CCN(c3ccc(C(=O)NS(=O)(=O)c4ccc(N[C@H](CCN5CCOCC5)CSc5ccccc5)c(S(=O)(=O)C(F)(F)F)c4)cc3)CC2)C1 + Cn1cc(/C=C2\C(=O)Nc3cccnc32)c2ccccc21 [GW441756] (first compound 0.4 µM, partner dose 0.4 µM) | 89.6% | 105% | 17.7% | 87.9% | 112% | 104%
9 | CC1(C)CCC(c2ccc(Cl)cc2)=C(CN2CCN(c3ccc(C(=O)NS(=O)(=O)c4ccc(N[C@H](CCN5CCOCC5)CSc5ccccc5)c(S(=O)(=O)C(F)(F)F)c4)cc3)CC2)C1 + C[C@@H](Oc1cc(-c2cnn(C3CCNCC3)c2)cnc1N)c1c(Cl)ccc(F)c1Cl [Crizotinib] (first compound 0.4 µM, partner dose 0.2 µM) | 88.3% | 91.4% | 9.38% | 77.6% | 104% | 89.9%
10 | Cc1ccc(Nc2nccc(N(C)c3ccc4c(C)n(C)nc4c3)n2)cc1S(N)(=O)=O [Pazopanib] + O=C(Nc1ccccc1)c1cc([N+](=O)[O-])ccc1Cl [GW9662] (first compound 0.4 µM, partner dose 2 µM) | 96.6% | 91.9% | 114% | 89.9% | 84.4% | 102%
11 | Cc1ccc(Nc2nccc(N(C)c3ccc4c(C)n(C)nc4c3)n2)cc1S(N)(=O)=O [Pazopanib] + Cc1cc(N2CCOCC2)cc2[nH]c(-c3c(NC[C@@H](O)c4cccc(Cl)c4)cc[nH]c3=O)nc12 [BMS536924] (first compound 0.4 µM, partner dose 0.2 µM) | 103% | 99% | 78.8% | 80.8% | 92.7% | 114%
12 | CC1(C)CCC(c2ccc(Cl)cc2)=C(CN2CCN(c3ccc(C(=O)NS(=O)(=O)c4ccc(N[C@H](CCN5CCOCC5)CSc5ccccc5)c(S(=O)(=O)C(F)(F)F)c4)cc3)CC2)C1 + CC(=O)c1c(C)c2cnc(Nc3ccc(N4CCNCC4)cn3)nc2n(C2CCCC2)c1=O [palbociclib] (first compound 0.4 µM, partner dose 0.04 µM) | 58.9% | 46% | 18.3% | 74% | 64.4% | 74.1%
13 | Cc1ccc(Nc2nccc(N(C)c3ccc4c(C)n(C)nc4c3)n2)cc1S(N)(=O)=O [Pazopanib] + COc1ccc(-c2ccc3c(N4CCOCC4)nc(N4C[C@@H](C)O[C@@H](C)C4)nc3n2)cc1CO [KU0063794] (first compound 0.4 µM, partner dose 0.02 µM) | 93.8% | 84.9% | 95.6% | 86.6% | 83.8% | 95.8%
14 | Cc1ccc(Nc2nccc(N(C)c3ccc4c(C)n(C)nc4c3)n2)cc1S(N)(=O)=O [Pazopanib] + Cn1sc(=O)n(Cc2ccccc2)c1=O [TDZD-8] (first compound 0.4 µM, partner dose 0.4 µM) | 96% | 92.6% | 89.1% | 98.8% | 108% | 90.5%
15 | CC1(C)CCC(c2ccc(Cl)cc2)=C(CN2CCN(c3ccc(C(=O)NS(=O)(=O)c4ccc(N[C@H](CCN5CCOCC5)CSc5ccccc5)c(S(=O)(=O)C(F)(F)F)c4)cc3)CC2)C1 + CC(C)C[C@H](NC(=O)[C@H](Cc1ccccc1)NC(=O)c1cnccn1)B(O)O [Bortezomib] (first compound 0.4 µM, partner dose 0.001 µM) | 73.6% | 17% | 4.66% | 74.4% | 9.75% | 76.4%
16 | Cc1ccc(Nc2nccc(N(C)c3ccc4c(C)n(C)nc4c3)n2)cc1S(N)(=O)=O [Pazopanib] + Cc1cn(-c2cc(NC(=O)c3ccc(C)c(Nc4nccc(-c5cccnc5)n4)c3)cc(C(F)(F)F)c2)cn1 [nilotinib] (first compound 0.4 µM, partner dose 0.2 µM) | 105% | 99.8% | 93.3% | 84.9% | 92% | 89.4%
17 | Cc1ccc(Nc2nccc(N(C)c3ccc4c(C)n(C)nc4c3)n2)cc1S(N)(=O)=O [Pazopanib] + CC1(C)NC(=O)N(c2ccc([N+](=O)[O-])c(C(F)(F)F)c2)C1=O [nilutamide] (first compound 0.4 µM, partner dose 1 µM) | 112% | 103% | 84.6% | 106% | 101% | 101%
18 | CC1(C)CCC(c2ccc(Cl)cc2)=C(CN2CCN(c3ccc(C(=O)NS(=O)(=O)c4ccc(N[C@H](CCN5CCOCC5)CSc5ccccc5)c(S(=O)(=O)C(F)(F)F)c4)cc3)CC2)C1 + CNC(=O)c1cc(Oc2ccc(NC(=O)Nc3ccc(Cl)c(C(F)(F)F)c3)cc2)ccn1 [sorafenib] (first compound 0.4 µM, partner dose 0.4 µM) | 86.5% | 60.8% | 14.3% | 89.8% | 92.8% | 57.5%
19 | Cc1ccc(Nc2nccc(N(C)c3ccc4c(C)n(C)nc4c3)n2)cc1S(N)(=O)=O [Pazopanib] + c1cc(-c2cnn3cc(-c4ccc(OCCN5CCCCC5)cc4)cnc23)ccn1 [Dorsomorphin] (first compound 0.4 µM, partner dose 0.4 µM) | 103% | 98.5% | 85.7% | 70.3% | 78.6% | 94.6%
20 | CC1(C)CCC(c2ccc(Cl)cc2)=C(CN2CCN(c3ccc(C(=O)NS(=O)(=O)c4ccc(N[C@H](CCN5CCOCC5)CSc5ccccc5)c(S(=O)(=O)C(F)(F)F)c4)cc3)CC2)C1 + Cc1cn(-c2cc(NC(=O)c3ccc(C)c(Nc4nccc(-c5cccnc5)n4)c3)cc(C(F)(F)F)c2)cn1 [nilotinib] (first compound 0.4 µM, partner dose 0.2 µM) | 84.8% | 82.4% | 13.7% | 88.8% | 81.1% | 83.9%
21 | Cc1ccc(Nc2nccc(N(C)c3ccc4c(C)n(C)nc4c3)n2)cc1S(N)(=O)=O [Pazopanib] + Nc1nc(F)nc2c1ncn2[C@@H]1O[C@H](CO)[C@@H](O)[C@@H]1O [fludarabine] (first compound 0.4 µM, partner dose 0.2 µM) | 86.9% | 68.5% | 77.9% | 38.9% | 73.1% | 67.5%
22 | Cc1ccc(Nc2nccc(N(C)c3ccc4c(C)n(C)nc4c3)n2)cc1S(N)(=O)=O [Pazopanib] + COc1ccc(Cl)c(Nc2nc3ccccc3nc2NS(=O)(=O)c2cccc(NC(=O)C(C)(C)N)c2)c1 [XL147] (first compound 0.4 µM, partner dose 0.8 µM) | 89.8% | 83.1% | 90.5% | 108% | 75.5% | 85.9%
23 | O=C(/C=C/c1cccnc1)NCCCCC1CCN(C(=O)c2ccccc2)CC1 + CC(=O)O[C@@]12CO[C@@H]1C[C@H](O)[C@@]1(C)C(=O)[C@H](O)C3=C(C)[C@@H](OC(=O)[C@H](O)[C@@H](NC(=O)OC(C)(C)C)c4ccccc4)C[C@@](O)([C@@H](OC(=O)c4ccccc4)[C@H]21)C3(C)C [Docetaxel] (first compound 0.01 µM, partner dose 0.0001 µM) | 77.6% | 36.3% | 55.6% | 46.9% | 67.1% | 53.8%
